Results from PubChem BioAssay AID463173 (ICCB-Longwood Screening Facility, Harvard Medical School, 2010).
Screen size: about 52,000 compounds; about 4,300 (8.3%) were called active. Rule as the data show it: active = survival mostly below about 52% (no sharp cut-off); inactive = mostly above about 56%. This is one part of the list.

These compounds were tested on DeltatarO mutant (assay: growth inhibition of S. aureus wild type versus tarO mutant, primary screen, teichoic acid synthesis inhibitors, RN4220, OD600 (AID 463173)). Details: OD600, 18 h, stronger effect = lower value, screened at 18.75 µg/mL (by protocol).

Row | SMILES | survival
1 | CC1(C)CC2CC(C)(CN2C(=O)c2cccs2)C1 (configuration not stated) | inactive: 78%
2 | CCc1nn2c(=O)c(S(=O)(=O)Nc3cccc(F)c3)c(C)nc2s1 | inactive: 70%
3 | CCCNC(=O)N1CCN(S(=O)(=O)c2ccc3c(ccn3C)c2)CC1 | inactive: 83%
4 | COc1cc2c(c(OC)c1)C(c1cc(OC)c(OC)c(OC)c1)CC(=O)N2 (configuration not stated) | inactive: 78%
5 | Cc1c2cnn(-c3ccccc3)c(=O)c2c(C)n1CC(=O)NCc1ccccc1 | inactive: 93%
6 | Cc1ccc(Cl)cc1NS(=O)(=O)c1cc2c3c(c1)CC(=O)N3CCC2 | inactive: 92%
7 | Cc1cccc(-n2c(SCC(=O)c3ccccc3)nnc2-c2ccc(Br)cc2)c1 | inactive: 78%
8 | Cc1ccc(CNC(=O)Cn2c(=O)n(-c3cccc(Cl)c3)c(=O)c3sc4ccccc4c32)cc1 | inactive: 88%
9 | CCOC(=O)C1CCCN(S(=O)(=O)c2csc(C(N)=O)c2)C1 (configuration not stated) | inactive: 74%
10 | COc1ccccc1N1CCN(C(=O)c2cc3ccc4ccc(C)[nH]c4c3n2)CC1 | inactive: 74%
11 | CCOc1ccc(-c2cc3nc(C4CCN(C(=O)OC(C)(C)C)CC4)c(C(=O)Nc4ccc(C)cc4C)cn3n2)cc1 | inactive: 63%
12 | O=C(CC1SC(=NC2CCCCC2)NC1=O)Nc1ccccc1 (configuration not stated) | inactive: 89%
13 | CCC(C)NC(=O)c1nc2c(nnn2Cc2ccccc2Cl)c(=O)[nH]1 (configuration not stated) | inactive: 85%
14 | O=C(CN(C(=O)Cn1nnc(-c2cccs2)n1)C1CCCC1)NCc1ccccc1 | inactive: 90%
15 | CC(=O)Nc1ccccc1N1CCCCC1 | inactive: 100%
16 | Cc1cccc(C(=O)NCC(=O)OCc2cc(=O)n3nc(C4CC4)sc3n2)c1 | inactive: 69%
17 | CCOC(=O)Cn1c(=O)n(C2CCCCC2)c2nc(-c3cccc(OC)c3)nc(C(N)=O)c21 | inactive: 91%
18 | Cc1cc(C)cc(NC(=O)CCc2c(C)nc3c4cccnc4nn3c2C)c1 | inactive: 99%
19 | COc1ccc(CCNC(=O)c2ccc(CNS(=O)(=O)c3ccccc3)cc2)cc1OC | inactive: 119%

Row | SMILES | survival
20 | COc1cc(NC(=O)c2ccc(NC(=O)N3CCSc4ncccc43)cc2)cc(OC)c1 | inactive: 84%
21 | CCOc1cccc2sc(N(CCN(CC)CC)C(=O)c3ccco3)nc12 | inactive: 118%
22 | CC(C)(C)OC(=O)N1CCC(c2c(C(=O)N3CCN(C(=O)c4ccco4)CC3)cnn2-c2ccccc2)CC1 | inactive: 67%
23 | Cc1cccc(CCNC(=O)C2CCCN(S(=O)(=O)c3ccc4c(c3)oc(=O)n4C)C2)c1 (configuration not stated) | inactive: 102%
24 | O=C(CSc1cn(CC(=O)N2CCCC2)c2ccccc12)Nc1cc(C(F)(F)F)ccc1Cl | inactive: 52%
25 | CCC1CN(C(=O)Nc2ccc(C(=O)O)cc2)c2cc(Cl)ccc2O1 (configuration not stated) | inactive: 82%
26 | CC(CNC(=O)CCCn1c(=O)c2cccn2c2cccnc21)c1ccccc1 (configuration not stated) | inactive: 95%
27 | O=C(c1ccc(CS(=O)c2ccccc2Cl)o1)N1CCN(c2cccc(Cl)c2)CC1 (configuration not stated) | active: 51%
28 | COc1cccc(CNC(=O)c2ccc(NC(=O)N3CC(C)Sc4ccccc43)cc2)c1 (configuration not stated) | inactive: 62%
29 | Cc1ccccc1Nc1c(-c2ccncc2)nc2ccc(Cl)cn12 | inactive: 118%
30 | CCOc1ccc(NC(=O)CCS(=O)(=O)c2ccc(Br)cc2)cc1 | inactive: 83%
31 | COc1ccc(/C=C(/C#N)c2nc(-c3ccc(Br)cc3)cs2)cc1 | inactive: 62%
32 | CCOC(=O)c1ccc(N2C(=O)c3n[nH]c(-c4cccs4)c3C2c2ccc(Cl)cc2Cl)cc1 (configuration not stated) | inactive: 61%
33 | Cc1cc(Br)ccc1NC(=O)C1CCN(S(=O)(=O)c2ccc(Br)s2)CC1 | inactive: 78%
34 | CCC(=O)N1CCc2cc(S(=O)(=O)CCC(=O)NCc3cccc(OC)c3)ccc21 | inactive: 117%
35 | COc1ccc(NC(=O)c2c(C)oc3ccc(O)c(CN4CCN(Cc5ccccc5)CC4)c23)cc1 | inactive: 56%
36 | COc1cc(NC(=O)c2c(C)oc3ncnc(N4CCCCC4)c23)cc(OC)c1 | inactive: 128%
37 | Cc1ccc2c(c1)c(=O)c1ccccc1n2CCCC(=O)Nc1c(F)cccc1F | inactive: 53%
38 | CN(Cc1ccccc1)C(=O)c1cn(C)c2ccc(S(=O)(=O)N(C)C3CCCCC3)cc2c1=O | inactive: 88%

Row | SMILES | survival
39 | CCCS(=O)(=O)c1nc(S(=O)(=O)c2ccc(C)cc2)c(NCc2ccccc2)s1 | inactive: 102%
40 | O=C(NCC(c1ccccc1)c1ccccc1)c1nn(-c2ccccc2F)nc1CO | inactive: 104%
41 | Cc1ccc(CCNC(=O)CCSCc2ccccc2Cl)cc1 | active: 20%
42 | Cc1ccc2c(c1)-c1c(cnn1CC(=O)Nc1ccccc1C#N)CO2 | inactive: 111%
43 | CC(=O)N1CCCc2cc(S(=O)(=O)N3CCCC(C(=O)N4CCN(c5cc(C)ccc5C)CC4)C3)ccc21 (configuration not stated) | inactive: 79%
44 | Cc1ccc(OC(=O)CSc2nnc(CNC(=O)c3ccccc3)o2)cc1 | inactive: 81%
45 | CCc1ccc(C2=NN(CCC(=O)NCCc3ccc(Cl)cc3)C(=O)CC2)cc1 | inactive: 128%
46 | Cc1ccc(C(=O)COC(=O)CCC(=O)Nc2ccc(Oc3cc(C)ccc3C(C)C)cc2)cc1 | inactive: 62%
47 | C(=N\c1nncs1)/Nc1nncs1 | inactive: 85%
48 | Cc1ccc2nc(C3CCCN(C(=O)NCc4ccccc4)C3)[nH]c2c1 (configuration not stated) | inactive: 74%
49 | O=C1c2ccccc2S(=O)(=O)c2cc(-c3nn[nH]n3)ccc21 | inactive: 77%
50 | Cc1ccc(NC(=O)c2c(C)oc3ccc(O)c(CN4CCCCC4)c23)c(C)c1 | inactive: 58%
51 | CC(=O)NC1N=C(C)N(c2ccccc2)C1=O (configuration not stated) | inactive: 87%
52 | Cc1ccc(-c2nnc(Nc3ccc(S(N)(=O)=O)cc3)c3ccccc23)cc1S(=O)(=O)N1CCCCC1 | inactive: 103%
53 | COCCNC(=O)CSc1nc(-c2ccccc2C)nc2c1c(=O)n(C)c(=O)n2C | inactive: 80%
54 | COc1ccc(CCC(=O)NCCc2csc(-c3ccc(Cl)cc3)n2)cc1 | inactive: 113%
55 | NS(=O)(=O)c1ccc2nc(NC(=O)COc3ccccc3)sc2c1 | inactive: 81%
56 | CN(Cc1ccco1)S(=O)(=O)c1nnc(NC(=O)c2cccc(Cl)c2)s1 | active: 5%
57 | Cc1ccc(NC(=O)c2nc(S(C)(=O)=O)ncc2N(Cc2ccco2)Cc2ccco2)cc1C | inactive: 50%
